# Test results taken from PubChem BioAssay AID588591 (National Center for Advancing Translational Sciences (NCATS), 2011).
# The whole screen tested about 390,000 compounds, of which about 4,700 (1.2%) were called active. The shares of active, inactive and inconclusive entries below differ from those in the screen. Calls come from the whole dose curve; as a rule, active = well fitted inhibition curve with a large enough effect; inconclusive = small, poorly fitted or top-dose-only effect, or another doubt; inactive = no such curve, though single readings can be large or run the other way. Potencies beside an inconclusive call are fits to weak or partial responses and may not hold up.
# Molecular target: DNA polymerase eta (Homo sapiens) (UniProt Q9Y253)
# Test: qHTS for Inhibitors of Polymerase Eta
# Conditions: recombinant Pol eta, fluorescent DNA replication assay; series mostly up to 114 µM
# Outline: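 Pol eta (10 nM) was preincubated with compounds for 15 min at room temperature, after which fluorescent replication substrate (50 nM final) was added to start the reaction. Fluorescence was read kinetically at 0 and 10 min.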
# Potency is the fitted concentration of half-maximal effect; tags give direction and shape of the fitted curve.
# UniProt Q9Y253, sequence (Q9Y253 whole entry, looked up): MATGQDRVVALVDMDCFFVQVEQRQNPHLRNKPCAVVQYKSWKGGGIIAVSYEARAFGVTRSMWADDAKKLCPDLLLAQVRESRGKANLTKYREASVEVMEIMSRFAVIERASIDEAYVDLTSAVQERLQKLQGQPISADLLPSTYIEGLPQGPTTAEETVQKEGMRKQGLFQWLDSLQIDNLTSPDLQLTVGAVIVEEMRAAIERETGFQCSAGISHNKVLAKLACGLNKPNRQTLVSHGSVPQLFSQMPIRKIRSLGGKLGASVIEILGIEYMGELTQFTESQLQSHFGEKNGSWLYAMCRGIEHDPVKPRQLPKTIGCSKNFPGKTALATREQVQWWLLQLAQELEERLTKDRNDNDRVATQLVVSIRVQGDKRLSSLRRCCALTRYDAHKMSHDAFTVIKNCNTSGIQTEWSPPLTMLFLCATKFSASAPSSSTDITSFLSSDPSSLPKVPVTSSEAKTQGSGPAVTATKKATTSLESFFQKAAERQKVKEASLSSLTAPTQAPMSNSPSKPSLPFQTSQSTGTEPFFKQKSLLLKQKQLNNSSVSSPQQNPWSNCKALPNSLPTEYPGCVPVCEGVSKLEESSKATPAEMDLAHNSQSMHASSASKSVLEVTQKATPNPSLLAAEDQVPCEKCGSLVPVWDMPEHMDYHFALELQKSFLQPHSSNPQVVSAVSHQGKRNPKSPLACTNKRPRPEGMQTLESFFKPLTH
row,Compound,Potency
1,O=C(/C=C/c1ccco1)NCc1ccccn1,inactive
2,COC(=O)c1ccccc1NC(=O)COC(C)=O,"inconclusive: 28.2 µM [inhibitor, partial curve]"
3,Nc1ncccc1C(=O)OCC(=O)NC1CCCCCC1,active: 79.4 µM
4,O=C(CC1SC(=O)NC1=O)Oc1ccc(/C=N/NC(=O)c2ccccc2O)cc1 (centres undefined),"inconclusive: 50.1 µM [inhibitor, partial curve]"
5,O=S(=O)(NC1CCCCC1Nc1ccc(Cl)cc1)c1ccccc1 (centres undefined),"inconclusive: 100 µM [inhibitor, partial curve, poor fit]"
6,O=c1c(Br)ccc(Br)cc1Br,active: 28.2 µM
7,CCc1ccc(NS(=O)(=O)c2ccc3[nH]cc(C(=O)NCC4CCCO4)c(=O)c3c2)cc1 (centres undefined),"inconclusive: 14.1 µM [inhibitor, full curve, poor fit]"
8,C=CC#CC[N+]1(CC#Cc2ccccc2)CCOCC1,active: 35.5 µM
9,O=C(Cn1cnc([N+](=O)[O-])n1)c1ccc(O)c(O)c1,"inconclusive: 17.8 µM [inhibitor, full curve, poor fit]"
10,CCOC(=O)N1CCN(C(=O)CSc2ccc3nnc(-c4ccncc4)n3n2)CC1,"inconclusive: 22.4 µM [inhibitor, full curve, poor fit]"
11,CSc1cccc(NC(=O)Cn2c3ncccc3c(=O)n2-c2ccc(C)cc2)c1,inactive
12,O=C(Nc1cccc(C(=O)O)c1)/C(=C\c1ccco1)NC(=O)c1ccccc1,"inconclusive: 15.8 µM [inhibitor, partial curve, poor fit]"
13,Cn1c2ccccc2c(=O)c2cc(C#Cc3cccc(N)c3)ccc21,inactive
14,O=C(CCCc1c[nH]c2ccccc12)NCCc1c[nH]c2ccccc12,active: 89.1 µM
15,COc1ccc2c(c1)[nH]c1c(N3CCN(Cc4ccc5c(c4)OCO5)CC3)ncnc12,"inconclusive: 20 µM [inhibitor, full curve, poor fit]"
16,COc1ccc(CNC(=O)C[C@H]2C[C@H](C(=O)N3CCCCC3)[C@@]3(C)c4[nH]c5ccc(Cl)cc5c4CCN3C2=O)cc1OC,inactive
17,CCn1c(SCc2nc3sc(C(=O)O)c(C)c3c(=O)[nH]2)nc2ccccc21,active: 0.708 µM
18,CNc1ccccc1C(=O)OC(C)C(=O)Nc1ccc(Cl)cn1 (centres undefined),inactive
19,O=C(O)C1Nc2c(O)cccc2C2C=CCC12 (centres undefined),active: 1.26 µM
20,CCOC(=O)/C=C1\SCC(=O)N1CC(=O)NC(C)c1ccc(F)cc1 (centres undefined),"inconclusive: 25.1 µM [inhibitor, single point]"
21,O=C(CN1C(=O)C2C3C=CC(C3)C2C1=O)Nc1nc(-c2ccccn2)cs1 (centres undefined),"inconclusive: 31.6 µM [inhibitor, partial curve, poor fit]"
22,O=C1C(Nc2ccc(O)cc2)=C/C(=N/S(=O)(=O)c2cccs2)c2ccccc21,"inconclusive: 56.2 µM [inhibitor, partial curve, poor fit]"

row,Compound,Potency
1,O=C(c1c[nH]c(C(=O)C(Cl)(Cl)Cl)c1)c1c(F)cccc1F,"inconclusive: 50.1 µM [inhibitor, partial curve]"
2,CCCOc1ccc(CCC(=O)N/N=C/c2ccncc2)cc1,"inconclusive: 70.8 µM [inhibitor, partial curve, poor fit]"
3,COc1cc(/C=C/C(=O)c2ccc([N+](=O)[O-])o2)ccc1O,"inconclusive: 56.2 µM [inhibitor, partial curve, poor fit]"
4,Cc1nnc(SCC2=C(C(=O)O)N3C(=O)C(NC(=O)C(C)n4nc(C(F)(F)F)cc4C)C3SC2)s1 (centres undefined),active: 22.4 µM
5,CC(C)c1cnc2c(c1SCC(=O)Nc1ccccc1C(F)(F)F)c(=O)n(C)c(=O)n2C,inactive
6,Cc1nc2c(sc3nc4c(cc32)COC(C)(C)C4)c(=O)n1CC(=O)NCc1ccco1,"inconclusive: 56.2 µM [inhibitor, partial curve, poor fit]"
7,Cc1ccc(CSc2nc(-c3cccs3)ccc2C#N)cc1,"inconclusive: 79.4 µM [inhibitor, partial curve, poor fit]"
8,CCC(=O)NCCC(c1ccco1)c1ccccc1OC (centres undefined),"inconclusive: 31.6 µM [inhibitor, single point]"
9,CCn1c(C)nc2cc(C(=O)N/N=C/c3ccc(OC)c(O)c3)ccc21,"inconclusive: 39.8 µM [inhibitor, partial curve, poor fit]"
10,COc1ccc(C(=O)COC(=O)c2ccc3c(c2)NC(=O)CS3)c(OC)c1,"inconclusive: 39.8 µM [inhibitor, partial curve, poor fit]"
11,Cc1cccc(C)c1NC(=O)Cn1nc(-c2ccc(Cl)s2)ccc1=O,"inconclusive: 70.8 µM [inhibitor, single point]"
12,Cc1cc(C)c(NC(=O)C2CC(=O)N(C3CCCC3)C2)c(C)c1 (centres undefined),inactive
13,NC(=O)COC(=O)c1c2c(nc3ccccc13)CCC2,active: 35.5 µM
14,COc1ccc(/C=C/c2ccc(=O)n(Cc3ccccc3)n2)cc1,inactive
15,CN(CC(=O)NCCc1ccc(F)cc1)Cc1ccccc1,"inconclusive: 89.1 µM [inhibitor, partial curve, poor fit]"
16,CCCOc1cccc(C2C(C(=O)c3cc4ccccc4o3)=C(O)C(=O)N2c2cc(C)on2)c1 (centres undefined),inactive
17,CCN(c1ccc(NC(=O)CSc2nnc3nc(C)cc(C)n23)cc1)C(C)C,"inconclusive: 28.2 µM [inhibitor, partial curve, poor fit]"
18,CC(NC(=O)Cn1ncc(Cl)c(Cl)c1=O)C12CC3CC(CC(C3)C1)C2 (centres undefined),"inconclusive: 12.6 µM [inhibitor, partial curve]"
19,CCCc1ccc(C(C)NC(=O)c2cnccn2)cc1 (centres undefined),"inconclusive: 25.1 µM [inhibitor, partial curve, poor fit]"
20,CCOc1c(Cl)cc(Cl)cc1CNCCSc1nnnn1C,inactive
21,COc1ccc(C2/C=C\CN(S(=O)(=O)c3ccc(C)cc3)CC(=O)N2Cc2ccc(F)cc2)cc1 (centres undefined),"inconclusive: 50.1 µM [inhibitor, partial curve, poor fit]"
22,Cc1cccc(-c2noc(CN(C(=O)c3ccccc3Cl)C(C)C)n2)c1,inactive
